Among all 110,000 compounds or so, about 230 (0.21%) showed an effect of 50% or more. This is one part of the list.
Each molecule was assayed against DPAP1 (Plasmodium falciparum, UniProt Q8IIJ9) (assay: primary screen, percent inhibition; read by cleavage of a fluorogenic dipeptide substrate; higher = more effect of the substance).
Sequence of DPAP1 (Q8IIJ9 whole entry, looked up): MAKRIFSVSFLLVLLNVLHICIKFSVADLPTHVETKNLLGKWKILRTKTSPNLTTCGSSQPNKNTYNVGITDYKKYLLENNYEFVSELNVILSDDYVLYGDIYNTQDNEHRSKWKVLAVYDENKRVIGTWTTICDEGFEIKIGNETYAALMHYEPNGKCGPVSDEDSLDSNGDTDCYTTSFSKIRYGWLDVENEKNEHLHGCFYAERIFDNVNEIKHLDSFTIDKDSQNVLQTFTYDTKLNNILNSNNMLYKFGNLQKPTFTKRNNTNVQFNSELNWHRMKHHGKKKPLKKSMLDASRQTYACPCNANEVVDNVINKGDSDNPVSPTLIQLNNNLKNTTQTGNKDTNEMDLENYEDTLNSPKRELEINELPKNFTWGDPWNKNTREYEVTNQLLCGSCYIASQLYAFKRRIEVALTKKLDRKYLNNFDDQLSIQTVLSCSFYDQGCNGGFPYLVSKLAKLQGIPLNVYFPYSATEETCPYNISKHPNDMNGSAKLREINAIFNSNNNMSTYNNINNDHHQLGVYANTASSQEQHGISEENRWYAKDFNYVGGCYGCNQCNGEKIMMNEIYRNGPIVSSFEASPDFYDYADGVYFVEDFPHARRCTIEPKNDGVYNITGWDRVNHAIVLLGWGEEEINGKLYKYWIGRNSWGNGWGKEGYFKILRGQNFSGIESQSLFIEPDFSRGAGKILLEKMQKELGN
Parameters: species or system P. falciparum D10 trophozoite lysates; single well
With `CC(=O)NC1(c2ccccc2)CCN(C)C(c2ccccc2)C1C` (centres unmarked) the “% Inhibition @ 10 uM” value was -4.35%. For `CSc1ncc(C(=O)NCCCc2ccccc2)c(-c2ccccc2)n1`, the “% Inhibition @ 10 uM” value was 6.46%. For `Cc1ccc(-c2cc(-c3ccccc3)nc(-n3nc(C)cc3C)n2)cc1`, the “% Inhibition @ 10 uM” value was 4.63%. With `O=C1CC(N2CCN(S(=O)(=O)c3ccccc3)CC2)C(=O)N1c1ccccc1` (centres unmarked) the “% Inhibition @ 10 uM” value was -0.988%. With `O=C(Cc1nnc(-c2ccc(Br)cc2)o1)NCCc1c[nH]c2ccccc12` the “% Inhibition @ 10 uM” value was -3.57%. `NS(=O)(=O)c1ccc(NC(=O)COc2ccc(Cl)cc2Br)cc1` was tested, and the “% Inhibition @ 10 uM” value was -1.89%. In the case of `CCC(C)NC(=O)c1cc2c(O)nc3ccc(C)cc3c2s1` (centres unmarked), the “% Inhibition @ 10 uM” value is reported as 7.39%. With `Cc1ccsc1CN(C(=O)COc1ccc(C(C)C)cc1)C1CCS(=O)(=O)C1` (centres unmarked) the “% Inhibition @ 10 uM” value was 2.19%. In the case of `CCOC(=O)c1c(NC(=O)c2nc3ncccn3n2)sc2c1CCC(CC)C2` (centres unmarked), the “% Inhibition @ 10 uM” value is reported as 3.35%. In the case of `COc1cccc(CNCc2ccc(C(=O)O)s2)c1OC`, the “% Inhibition @ 10 uM” value is reported as 4.79%. `CSc1cccc(-c2cccc(C(=O)N[C@@H](CC(C)C)C(=O)NCC#N)c2)c1` was tested, and the “% Inhibition @ 10 uM” value was -0.207%. `O=c1c(-c2ccccc2)c(N2CC3CC(C2)c2cccc(=O)n2C3)c1=O` (centres unmarked) was tested, and the “% Inhibition @ 10 uM” value was -1.11%. For `Clc1ccc(C2CC(c3ccco3)n3ncnc3N2)cc1Cl` (centres unmarked), the “% Inhibition @ 10 uM” value was -4.52%. With `COc1ccc2[nH]c(N3CCCCC3)nc2c1` the “% Inhibition @ 10 uM” value was 2%. For `Cc1nc2cc(/C=C/C(=O)c3nc4ccccc4s3)ccc2n1-c1ccccc1`, the “% Inhibition @ 10 uM” value was -3.44%. `Clc1ccc(CC2=NCCN2)cc1` was tested, and the “% Inhibition @ 10 uM” value was -1.99%. With `COc1ccc(NC(=O)CN(c2cccc(Cl)c2Cl)S(=O)(=O)c2ccccc2)c(OC)c1` the “% Inhibition @ 10 uM” value was -5.13%. `O=C(NCC1CCCO1)c1ccc(NC(=O)c2ccc(Br)cc2)cc1` (centres unmarked) was tested, and the “% Inhibition @ 10 uM” value was 5.54%. With `CCOC(=O)c1cc(C)n(S(=O)(=O)c2ccc(C)cc2)c1C` the “% Inhibition @ 10 uM” value was 1.63%. `CCN(CC)S(=O)(=O)c1ccc(NC(=O)COc2ccc(C)cc2)cc1` was tested, and the “% Inhibition @ 10 uM” value was -8.01%. With `CCOc1ccc(CNC(=S)Nc2ccccc2)cc1Cl` the “% Inhibition @ 10 uM” value was -2.44%. With `O=C(Nc1ccccc1Br)c1ccccc1Cl` the “% Inhibition @ 10 uM” value was -3.72%. With `CCC1CCCCN1CCCNC(=O)C1CCCN(c2nn3c(=O)cc(C)nc3s2)C1` (centres unmarked) the “% Inhibition @ 10 uM” value was 3%. For `CCc1ccc(CNC(=O)C2CC(=O)N(Cc3ccc(OC)cc3)C2)cc1` (centres unmarked), the “% Inhibition @ 10 uM” value was -1.79%. For `COc1ccccc1-c1nc2nc(C)cc(O)n2n1`, the “% Inhibition @ 10 uM” value was 4.54%. In the case of `CC(C)CC(C(=O)NCC#N)c1nc(-c2cccc(-c3csc(N4CCN(C)CC4)n3)c2)cs1` (centres unmarked), the “% Inhibition @ 10 uM” value is reported as -0.0222%. For `CN1C(=O)C(=Cc2ccc(Cl)cc2Cl)C(=O)N(C)C1=S`, the “% Inhibition @ 10 uM” value was -0.807%. For `O=C(Cn1ncc2c(=O)oc3ccccc3c21)NCc1ccc(F)cc1`, the “% Inhibition @ 10 uM” value was -6.62%. With `O=C(NCCc1ccc(Cl)cc1)c1ccc2nc(N3CCCCC3)sc2c1` the “% Inhibition @ 10 uM” value was -0.637%. In the case of `O=c1cccc2n1C[C@H]1C[C@@H]2CN(Cc2ccccc2Cl)C1`, the “% Inhibition @ 10 uM” value is reported as -1.85%. For `COc1ccc2oc(=O)cc(CN3CCN(Cc4ccc(F)cc4)CC3)c2c1`, the “% Inhibition @ 10 uM” value was 0.425%. With `COc1ccc(OCC(=O)NC2CCCCCCC2)cc1` the “% Inhibition @ 10 uM” value was 0.324%. For `COc1ccccc1CNC(=O)C1CC(=O)N(C2CCCC2)C1` (centres unmarked), the “% Inhibition @ 10 uM” value was 3.79%. In the case of `Cc1oc(-c2ccccc2Cl)nc1CS(=O)(=O)CC(=O)N1CCC(N2CCCCC2)CC1`, the “% Inhibition @ 10 uM” value is reported as 0.44%. `COc1ccc(C2C(C(=O)N3CCOCC3)c3ccccc3C(=O)N2Cc2ccc(F)cc2)cc1` (centres unmarked) was tested, and the “% Inhibition @ 10 uM” value was -0.363%. With `CC(=O)C(C#N)NC(=O)[C@H](CC(C)C)NC(=O)c1ccc(N2CCOCC2)cc1` (some centres unmarked) the “% Inhibition @ 10 uM” value was 1.7%. In the case of `COc1cccc(CN2C(=O)CN(C3CCC(C)CC3)C(=O)C2c2ccc(OC)c(OC)c2)c1` (centres unmarked), the “% Inhibition @ 10 uM” value is reported as -4.06%. `Cc1cc(C(=O)O)ccc1-c1ccc(CO)o1` was tested, and the “% Inhibition @ 10 uM” value was -2.97%. With `C=CCOc1ccc2c(=O)c(Oc3cccc(C)c3)coc2c1` the “% Inhibition @ 10 uM” value was -3.1%. `Cc1ccccc1Cn1c(C(=O)O)c(C=O)c2ccccc21` was tested, and the “% Inhibition @ 10 uM” value was 1.63%. For `Cc1onc(-c2ccccc2)c1C(=O)Nc1sc2c(c1C(N)=O)CCCCCC2`, the “% Inhibition @ 10 uM” value was -0.949%. For `CCCCc1ccc(C2=N/C(=C\c3ccc4c(c3)OCO4)C(=O)O2)cc1`, the “% Inhibition @ 10 uM” value was 3.58%. In the case of `Cc1nc2sccn2c1C(=O)Nc1nc(-c2ccc(Cl)cc2)cs1`, the “% Inhibition @ 10 uM” value is reported as 4.11%. In the case of `CC(=O)c1ccc(NC(=O)COc2cccc(C)c2)cc1`, the “% Inhibition @ 10 uM” value is reported as 0.392%. In the case of `c1ccc2c(c1)c(NCc1ccc3c(c1)OCO3)nn1nnnc21`, the “% Inhibition @ 10 uM” value is reported as -6.26%. With `CCOC(=O)N1CCN(CN2C(=O)/C(=N/c3ccc4ccccc4c3)c3ccccc32)CC1` the “% Inhibition @ 10 uM” value was -11.2%. For `COC(=O)C1=C(C)N=c2s/c(=C/c3ccco3)c(=O)n2C1c1ccc(OC)cc1` (centres unmarked), the “% Inhibition @ 10 uM” value was 6.51%. `CCOCCCNC(=O)C(c1ccc(Cl)cc1)N(Cc1cccs1)C(=O)c1ccccn1` (centres unmarked) was tested, and the “% Inhibition @ 10 uM” value was -0.363%. `Cc1cc(C)c2nc3s/c(=C\c4ccc(N(C)C)cc4)c(=O)n3c2c1` was tested, and the “% Inhibition @ 10 uM” value was 0.345%. `Clc1ccc(-c2ccc(CN3CCOCC3)o2)cc1` was tested, and the “% Inhibition @ 10 uM” value was -7.18%. With `COc1ccc(CNC(=O)Cc2ccc(-n3cccc3)cc2)cc1` the “% Inhibition @ 10 uM” value was 1.2%. `COc1cc(C2NC(=O)N(C)C(C)=C2C(=O)OCCOc2ccccc2)ccc1O` (centres unmarked) was tested, and the “% Inhibition @ 10 uM” value was 1.25%. With `O=C(CCC1CCCC1)NCc1cccs1` the “% Inhibition @ 10 uM” value was -3.26%. With `CCn1c(C)cc(/C=C2\NC(=O)N(CC(=O)Nc3cccc(C)c3)C2=O)c1C` the “% Inhibition @ 10 uM” value was 4.11%. `O=C(NCCN1CCc2ccccc2C1)C1CCN(S(=O)(=O)N2CCCCC2)CC1` was tested, and the “% Inhibition @ 10 uM” value was -3.12%. `CCOC(=O)N1CCN(C(=O)Cn2cnc3c(nnn3Cc3ccc(F)cc3)c2=O)CC1` was tested, and the “% Inhibition @ 10 uM” value was -2.16%. `N#Cc1ccccc1N/C=C/C(=O)c1cccs1` was tested, and the “% Inhibition @ 10 uM” value was 1.03%. For `Cc1cc(C)nc(SCc2nnc(SCC(N)=O)n2-c2ccccc2)n1`, the “% Inhibition @ 10 uM” value was -3.68%. For `Cc1nn(CCCC(=O)NCCc2cccs2)c(=O)c2c1sc1ccccc12`, the “% Inhibition @ 10 uM” value was 23.3%. For `CC[C@H](NC(=O)[C@H](CS(=O)(=O)Cc1ccccc1OC(F)F)/N=C/NS(=O)(=O)c1ccccc1)C(=O)c1nc2ccccc2o1`, the “% Inhibition @ 10 uM” value was -3.14%. In the case of `COc1ccc(-c2cc(C(=O)Nc3cccnc3)no2)cc1`, the “% Inhibition @ 10 uM” value is reported as 6.29%. For `Oc1c2c(nc3nc(-c4cccnc4)nn13)CCC2`, the “% Inhibition @ 10 uM” value was -4.19%.
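Also: 30 min substrate incubation versus DMSO and 10 µM JCP410 controls.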
